Where “and” joins values, the source holds several entries; their conditions need not be identical. Equal values may be shown once. The campaign covered roughly 390,000 compounds. About 17,000 (4.4%) were called active. The shares of active, inactive and inconclusive entries below differ from those in the screen. The call rests on the fitted dose curve; in most records, active means well fitted inhibition curve with a large enough effect; inconclusive means small, poorly fitted or top-dose-only effect; inactive means no such curve, though single readings can be large or run the other way. Potencies of inconclusive entries are doubtful fits and often do not repeat.
Each compound was assayed against Lysine-specific demethylase 4A (Homo sapiens) (UniProt O75164) (assay: qHTS Assay for Inhibitors of JMJD2A-Tudor Domain). Conditions: AlphaScreen JMJD2A-Tudor / H3K4me3 peptide binding; series mostly up to 114 µM.
Chain of UniProt O75164 (O75164 whole entry, looked up, the tested form may be a part): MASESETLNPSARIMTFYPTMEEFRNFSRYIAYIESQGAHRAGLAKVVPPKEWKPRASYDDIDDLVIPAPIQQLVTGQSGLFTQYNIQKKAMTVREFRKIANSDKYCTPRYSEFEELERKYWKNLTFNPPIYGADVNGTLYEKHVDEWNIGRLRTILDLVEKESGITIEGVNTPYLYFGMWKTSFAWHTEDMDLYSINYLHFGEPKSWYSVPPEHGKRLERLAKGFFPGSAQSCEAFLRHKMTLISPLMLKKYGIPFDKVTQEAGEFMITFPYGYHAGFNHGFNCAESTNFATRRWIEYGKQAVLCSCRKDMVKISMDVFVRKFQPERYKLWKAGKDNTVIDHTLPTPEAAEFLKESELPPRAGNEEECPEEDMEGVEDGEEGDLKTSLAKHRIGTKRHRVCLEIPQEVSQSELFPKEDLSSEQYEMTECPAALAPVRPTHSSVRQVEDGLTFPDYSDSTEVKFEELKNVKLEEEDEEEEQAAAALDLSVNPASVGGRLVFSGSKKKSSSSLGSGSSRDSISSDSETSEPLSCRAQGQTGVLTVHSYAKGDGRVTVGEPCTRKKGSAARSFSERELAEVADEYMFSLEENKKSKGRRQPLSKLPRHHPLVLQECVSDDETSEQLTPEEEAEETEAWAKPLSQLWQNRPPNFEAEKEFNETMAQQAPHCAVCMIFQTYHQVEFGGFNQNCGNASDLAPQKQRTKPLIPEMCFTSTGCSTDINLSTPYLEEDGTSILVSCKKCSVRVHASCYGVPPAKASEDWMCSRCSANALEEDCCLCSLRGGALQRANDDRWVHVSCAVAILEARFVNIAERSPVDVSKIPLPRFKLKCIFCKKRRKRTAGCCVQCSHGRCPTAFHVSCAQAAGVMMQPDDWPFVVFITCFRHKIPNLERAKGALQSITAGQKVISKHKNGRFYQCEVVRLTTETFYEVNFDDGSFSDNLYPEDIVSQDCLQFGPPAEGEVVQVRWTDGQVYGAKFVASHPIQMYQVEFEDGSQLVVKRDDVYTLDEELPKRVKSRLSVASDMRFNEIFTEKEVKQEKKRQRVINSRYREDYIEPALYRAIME
`CCOC(=O)C1=C(C)N=c2s/c(=C\c3ccc(OCC(=O)O)c(OC)c3)c(=O)n2C1c1ccc(OC)cc1` (centres undefined) was tested, and the Potency was active: 79.4 µM.
For `COc1cccc(/C=N/Nc2ncnc(N)c2[N+](=O)[O-])c1OC`, the Potency was inconclusive: 2.82 µM [inhibitor, full curve, poor fit].
In the case of `COc1ccc(-c2nnc(C)c3nocc23)cc1`, the Potency is reported as inconclusive: 56.2 µM [inhibitor, partial curve].
For `COC(=O)c1c(-c2ccc(Cl)cc2)noc1N1CCN(c2cccc(C(F)(F)F)c2)CC1`, the Potency was “inactive”.
With `CC(C)C(=O)NC(c1ccccc1)c1cc([N+](=O)[O-])c2cccnc2c1O` (centres undefined) the Potency was inconclusive: 39.8 µM [inhibitor, single point].
In the case of `Nc1c(Cl)ncnc1N/N=C/c1ccc2ccccc2n1`, the Potency is reported as active: 89.1 µM.
`COc1ccc(/C=C2/SC(=S)N(n3c(C)ccc3C)C2=O)cc1` was tested, and the Potency was active: 35.5 µM.
With `C[C@H]1CN([C@@H](C)CO)C(=O)Cc2cc(NC(=O)CCN3CCOCC3)ccc2O[C@@H]1CN(C)Cc1ccc(Oc2ccccc2)cc1` the Potency was active: 44.7 µM.
For `CC(C)NC(=O)C1CCN(C2CCN(C(=O)c3scc4c3CCCC4)CC2)CC1`, the Potency was “inactive”.
In the case of `Cn1c(CNc2nc(-c3ccccc3)cs2)nnc1SCC(=O)N1CCc2ccccc21`, the Potency is reported as inconclusive: 50.1 µM [inhibitor, partial curve].
In the case of `Cc1c(N2C(=O)CSC2c2ccco2)c(=O)n(-c2ccccc2)n1C` (centres undefined), the Potency is reported as “inactive”.
With `COCCNc1nnc(SCC(=O)Nc2sc3c(c2C(=O)c2ccccc2)CCCC3)s1` the Potency was inconclusive: 31.6 µM [inhibitor, single point].
`CCOC(=O)c1cc2c(=O)n3ccccc3nc2n(Cc2ccco2)c1=NC(=O)c1cccnc1` was tested, and the Potency was inconclusive: 79.4 µM [inhibitor, partial curve].
In the case of `CC(=O)c1ccc(N2CCN(S(=O)(=O)c3cccc4nsnc34)CC2)cc1`, the Potency is reported as inconclusive: 22.4 µM [inhibitor, full curve].
`O=[N+]([O-])c1ccc(Cl)c(S(=O)(=O)/N=C(/Sc2ccc(Br)cc2)c2ccccc2)c1` was tested, and the Potency was inconclusive: 20 µM [inhibitor, single point].
For `COc1cccc(C=NNc2nnc(NN=Cc3cccc(OC)c3OC)c3ccccc23)c1OC`, the Potency was active: 35.5 µM.
`CCOc1ccc(CC(=O)Nc2ccc(-c3ccc4nnc(C)n4n3)cc2)cc1` was tested, and the Potency was inconclusive: 28.2 µM [inhibitor, partial curve].
In the case of `Cc1cc(C)nc(N(C#N)CN2C(=O)c3ccccc3C2=O)n1`, the Potency is reported as “inactive”.
In the case of `Cc1ccc(NC(=O)COc2coc(CN3CCc4ccccc4C3)cc2=O)cc1Cl`, the Potency is reported as inconclusive: 89.1 µM [inhibitor, partial curve].
In the case of `CCOC(=O)c1cccc(N/C=C/C(=O)c2ccc(OC)c(OC)c2)c1`, the Potency is reported as inconclusive: 79.4 µM [inhibitor, partial curve].
For `N#CC1=C(SCC(=O)c2ccc(Cl)cc2)NC2=C(C(=O)CCC2)C1c1ccco1` (centres undefined), the Potency was inconclusive: 50.1 µM [inhibitor, partial curve].
`Cc1cccc(C)c1NC(=O)CSc1nc(-c2ccccc2)nc2c1Cc1c(CO)cnc(C)c1O2` was tested, and the Potency was “inactive”.
For `COC/C=C/C1=CC2=CC(=O)C(C)(OC(=O)c3cnc4ccccc4n3)C(=O)C2=CN1c1ccc(OC)cc1` (centres undefined), the Potency was inconclusive: 50.1 µM [inhibitor, partial curve].
With `CCN(CC)c1ccc(NS(=O)(=O)c2ccc(-c3cnc(C4CC4)o3)cc2)c(C)c1` the Potency was active: 17.8 µM.
For `Cc1nnc(-c2ccccc2)c(=O)n1/N=C/c1c(O)ccc2ccccc12`, the Potency was active: 56.2 µM.
`CCOc1ccccc1N1CCN(Cc2cn[nH]c2-c2ccc(F)cc2)CC1` was tested, and the Potency was inconclusive: 79.4 µM [inhibitor, partial curve, poor fit].
With `CC1(C)CC2CN(C(=O)Cc3ccccc3)C(C)(C2)C1` (centres undefined) the Potency was inconclusive: 31.6 µM [inhibitor, full curve].
With `N#Cc1nc(-c2ccccc2Cl)oc1N1CCCCC1` the Potency was inconclusive: 50.1 µM [inhibitor, partial curve].
For `O=C(CCCN1C(=O)/C(=C\c2cccs2)SC1=S)Nc1ccc(C(=O)O)cc1`, the Potency was “inactive”.
With `O=[N+]([O-])c1cc([N+](=O)[O-])c(Oc2ccccc2F)cc1NN1CCCCC1` the Potency was inconclusive: 11.2 µM [inhibitor, full curve].
For `COC(=O)C(Cc1cnc(Cl)s1)(C(=O)OC)c1ccc(C(F)(F)F)cc1[N+](=O)[O-]`, the Potency was inconclusive: 50.1 µM [inhibitor, partial curve].
`CCN(CC)CCN1C(=O)C(O)=C(C(=O)c2cccs2)C1c1ccc(C)o1` (centres undefined) was tested, and the Potency was inconclusive: 35.5 µM [inhibitor, partial curve].
With `COc1cc(/C=C/C(=O)c2ccc(NS(=O)(=O)c3ccc(C)cc3)cc2)ccc1OC(F)F` the Potency was “inactive”.
With `C[C@@H]1CN([C@H](C)CO)C(=O)c2cccc(NC(=O)NC3CCCCC3)c2O[C@@H]1CN(C)C(=O)Nc1ccc(C(F)(F)F)cc1` the Potency was inconclusive: 63.1 µM [inhibitor, partial curve, poor fit].
With `Cc1ccc(-c2nc3scc(CCNC(=O)Cc4ccc(Cl)cc4)n3n2)cc1` the Potency was “inactive”.
For `CCOC(=O)c1ccccc1S(=O)(=O)N1CCN(c2nc(-c3cccs3)nc3ccccc23)CC1`, the Potency was inconclusive: 22.4 µM [inhibitor, single point].
For `CC1(C)Cc2c(C#N)c(N)sc(=S)c2CO1`, the Potency was inconclusive: 44.7 µM [inhibitor, partial curve].
For `Nc1nc2n(n1)C(c1cccs1)CC(c1ccccc1)N2` (centres undefined), the Potency was “inactive”.
With `C/C(=N\Nc1nnc2c3ccccc3n(C)c2n1)c1ccc(C)o1` the Potency was inconclusive: 79.4 µM [inhibitor, partial curve].
For `COc1ccc(N2CC(C)Cn3c2nc2c3c(=O)n(Cc3ccccc3)c(=O)n2C)c(OC)c1` (centres undefined), the Potency was inconclusive: 14.1 µM [inhibitor, full curve, poor fit].
In the case of `CCN1CC(CN(C)Cc2cn(-c3ccc(C)cc3)nc2-c2cccc(C)c2)CC1=O` (centres undefined), the Potency is reported as inconclusive: 79.4 µM [inhibitor, single point].
For `CC1CCc2sc3ncnc(N4CCN(C)CC4)c3c2C1` (centres undefined), the Potency was “inactive”.
In the case of `Cc1cc(C)n(-c2nnc(C)n2/N=C/c2ccccc2O)n1`, the Potency is reported as active: 7.94 µM.
With `CC1=CCC2C(=O)N(c3ccc(C(=O)N4CCCCCC4)cc3)C(=O)C2C1` (centres undefined) the Potency was inconclusive: 11.2 µM [inhibitor, partial curve].
With `CC1=NN(C(=O)CCc2ccccc2O)C(O)(C(F)(F)F)C1` (centres undefined) the Potency was inconclusive: 89.1 µM [inhibitor, single point].
`Cc1c(N=C(N)/N=C(\N)Nc2ccc(Br)cc2)c(=O)n(-c2ccccc2)n1C` was tested, and the Potency was active: 31.6 µM.
`Cc1ccc(C)c(Sc2ccc(NC(=O)CCN3C(=O)NC4(CCCC4)C3=O)cc2)c1` was tested, and the Potency was inconclusive: 31.6 µM [inhibitor, partial curve].
With `O=C(NCCc1c[nH]c2ccccc12)c1cc2sccc2n1Cc1ccccc1` the Potency was inconclusive: 50.1 µM [inhibitor, partial curve].
`O=C(Nc1cccc(-c2cnc3ccccc3n2)c1)c1cccc(NC(=O)c2ccco2)c1` was tested, and the Potency was inconclusive: 3.98 µM [inhibitor, full curve, poor fit].
`CC(C)(C)c1nc2cc(Cl)c([N+](=O)[O-])cc2o1` was tested, and the Potency was inconclusive: 12.6 µM [inhibitor, full curve, poor fit].
For `CCCS(=O)(=O)N1CCN(Cc2ccco2)CC1`, the Potency was inconclusive: 50.1 µM [inhibitor, partial curve, poor fit].
In the case of `COc1cc(C(CC(=O)N2CCN(c3ccccc3)CC2)c2c(OC)cc(OC)c3ccc(=O)oc23)cc(OC)c1OC` (centres undefined), the Potency is reported as inconclusive: 50.1 µM [inhibitor, partial curve] and inconclusive: 79.4 µM [inhibitor, partial curve].
`CCOc1ccc(C2c3[nH]c4ccccc4c3CCN2C(=O)CCc2ccccc2)cc1` (centres undefined) was tested, and the Potency was inconclusive: 10 µM [inhibitor, full curve].
With `Cc1c(C(=O)c2ccc(Cl)c([N+](=O)[O-])c2)c2ccccn2c1CCC#N` the Potency was inconclusive: 39.8 µM [inhibitor, single point].
`CCN(CC(=O)Nc1ccccc1OC)CC(=O)Nc1ccccc1-c1ccccc1` was tested, and the Potency was active: 2.24 µM.
In the case of `COc1cccc(/C=C2\SC(=S)N(CC(=O)N(C)C3CCS(=O)(=O)C3)C2=O)c1` (centres undefined), the Potency is reported as inconclusive: 50.1 µM [inhibitor, partial curve].
`Cc1c2cnn(-c3ccccc3)c(=O)c2c(C)n1CCCC(=O)Nc1cc(F)ccc1F` was tested, and the Potency was “inactive”.
With `Cc1cccc(C)c1NC(=O)C(NS(=O)(=O)c1ccc2c(c1)CCC(=O)N2)c1ccccc1` (centres undefined) the Potency was “inactive”.
With `O=C(N/N=C/c1ccccc1F)c1cc2c(ccc3ccccc32)o1` the Potency was inconclusive: 11.2 µM [inhibitor, partial curve, poor fit].
`Cc1c(C(=O)Nc2c3c(nn2C(C)(C)C)CS(=O)(=O)C3)cccc1[N+](=O)[O-]` was tested, and the Potency was inconclusive: 17.8 µM [inhibitor, full curve, poor fit].
With `Cc1ccc(-n2nc(C)c(C(=O)NCCCN3CCN(c4ccc(F)cc4)CC3)c2-n2cccc2)cc1` the Potency was active: 44.7 µM.
For `CC(C)(C)NC(=O)C[C@H]1C[C@H](C(=O)N2CCCCC2)[C@@]2(C)c3[nH]c4cc(-c5ccco5)ccc4c3CCN2C1=O`, the Potency was active: 50.1 µM.
With `Nc1nc2ccc(Oc3ccccc3)cc2s1` the Potency was inconclusive: 89.1 µM [inhibitor, partial curve].
`CC(=O)N1CCN(c2ccc(NC(=O)/C=C/c3ccccc3)cc2)CC1` was tested, and the Potency was “inactive”.
Further: nearly all actives have a fitted effect of over 50% in size.
Potency means the concentration at half of the fitted maximal effect; tags describe the fitted curve by direction and shape.
